Experimental data as given in patent US20190241662A1 (ADAGENE, published 2019).

Assays:
Assay in all cases: yeast-display flow cytometry, Normalized FACS Bound
human CD80 = target: T1, human CD80 (human, UniProt P33681 35-242, limits assumed)
T1 construct: constructs not described; also called biotinylated CD80; CD80-Fc-Bio
T1 sequence (looked up): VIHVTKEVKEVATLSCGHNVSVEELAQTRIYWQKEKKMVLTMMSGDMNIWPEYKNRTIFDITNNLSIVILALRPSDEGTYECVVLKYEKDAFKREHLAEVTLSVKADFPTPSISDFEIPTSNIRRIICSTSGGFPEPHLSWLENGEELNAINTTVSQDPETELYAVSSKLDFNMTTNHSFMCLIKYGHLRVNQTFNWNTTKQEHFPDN

human CD86 = target: T2, human CD86 (human, UniProt P42081 24-247, limits assumed)
T2 construct: constructs not described; also called recombinant human CD86 fused with human Fc; CD86-Fc-Bio
T2 sequence (looked up): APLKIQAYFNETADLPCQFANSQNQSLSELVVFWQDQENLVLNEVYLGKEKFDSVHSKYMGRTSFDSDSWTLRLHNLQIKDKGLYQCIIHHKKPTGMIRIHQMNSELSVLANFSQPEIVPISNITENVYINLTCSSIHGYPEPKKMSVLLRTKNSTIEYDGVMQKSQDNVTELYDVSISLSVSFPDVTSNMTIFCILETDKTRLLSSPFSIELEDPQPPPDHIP

mouse CD86 = target: T3, mouse CD86 (mouse, UniProt P42082 24-244, limits assumed)
T3 sequence (looked up): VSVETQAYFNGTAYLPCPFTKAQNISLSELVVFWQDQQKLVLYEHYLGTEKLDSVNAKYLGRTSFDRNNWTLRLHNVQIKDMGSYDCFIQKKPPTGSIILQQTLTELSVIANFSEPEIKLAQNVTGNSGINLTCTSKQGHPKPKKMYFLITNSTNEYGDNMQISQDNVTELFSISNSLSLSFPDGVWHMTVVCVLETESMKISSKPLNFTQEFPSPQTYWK

- binding result (human CD80): binds
- binding result (human CD86): binds
- binding result (mouse CD86): binds
B1: human CTLA4 mutant I108E displayed on yeast (receptor)
chain: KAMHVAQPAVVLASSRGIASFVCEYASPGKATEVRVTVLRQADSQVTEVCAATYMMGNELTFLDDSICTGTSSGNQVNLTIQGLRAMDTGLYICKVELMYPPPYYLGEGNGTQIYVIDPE

- binding result (human CD80): binds
- binding result (human CD86): binds
- binding result (mouse CD86): binds
B2: human CTLA4 mutant I108R displayed on yeast (receptor)
chain: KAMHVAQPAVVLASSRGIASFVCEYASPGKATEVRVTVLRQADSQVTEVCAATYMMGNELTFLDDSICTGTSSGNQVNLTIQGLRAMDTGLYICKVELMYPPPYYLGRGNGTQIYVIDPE

- binding result (human CD80): binds
- binding result (human CD86): binds
- binding result (mouse CD86): binds
B3: human CTLA4 mutant I108A displayed on yeast (receptor)
chain: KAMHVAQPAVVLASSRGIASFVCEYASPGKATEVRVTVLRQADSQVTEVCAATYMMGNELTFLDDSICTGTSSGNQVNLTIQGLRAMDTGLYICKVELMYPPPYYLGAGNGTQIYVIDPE

- binding result (human CD80): binds
- binding result (human CD86): binds
- binding result (mouse CD86): binds
B4: human CTLA4 mutant I108K displayed on yeast (receptor)
chain: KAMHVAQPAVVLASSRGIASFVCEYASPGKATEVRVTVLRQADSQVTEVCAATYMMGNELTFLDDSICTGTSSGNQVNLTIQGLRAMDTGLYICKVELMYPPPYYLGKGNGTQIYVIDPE

- binding result (human CD80): binds
- binding result (human CD86): binds
- binding result (mouse CD86): binds
B5: human CTLA4 mutant I108S displayed on yeast (receptor)
chain: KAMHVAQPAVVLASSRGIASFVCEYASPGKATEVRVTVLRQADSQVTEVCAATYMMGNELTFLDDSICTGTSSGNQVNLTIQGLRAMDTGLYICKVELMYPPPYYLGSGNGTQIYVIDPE

- binding result (human CD80): binds
- binding result (human CD86): binds
- binding result (mouse CD86): binds
B6: mouse CTLA4 displayed on yeast (receptor)
chain: not shown

- binding result (human CD80): binds
- binding result (human CD86): binds
- binding result (mouse CD86): binds
B7: human CTLA4 displayed on yeast (wild-type) (receptor)
chain: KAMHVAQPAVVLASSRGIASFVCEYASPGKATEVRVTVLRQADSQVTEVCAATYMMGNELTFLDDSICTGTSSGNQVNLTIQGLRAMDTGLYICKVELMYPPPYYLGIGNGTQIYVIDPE
notes: also called human WT

- binding result (human CD80): binds
- binding result (human CD86): binds
- binding result (mouse CD86): binds
B8: human CTLA4 mutant YL105AA displayed on yeast (receptor)
chain: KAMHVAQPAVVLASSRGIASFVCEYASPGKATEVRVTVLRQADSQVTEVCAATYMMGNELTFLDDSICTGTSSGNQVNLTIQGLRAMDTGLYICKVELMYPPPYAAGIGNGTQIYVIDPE

One block for each binder: values may come before it.
